# Results: the supplement of paper PMC8728848
# The list shows a part of the results.
# B1: Siglec-E (Mus musculus), Q91Y57 (protein)
# chain: MLLLLLLLLLWGIKGVEGQNPQEVFTLNVERKVVVQEGLCVLVPCNFSYLKKRLTDWTDSDPVHGFWYREGTDRRKDSIVATNNPIRKAVKETRNRFFLLGDPWRNDCSLNIREIRKKDAGLYFFRLERGKTKYNYMWDKMTLVVTALTNTPQILLPETLEAGHPSNLTCSVPWDCGWTAPPIFSWTGTSVSFLSTNTTGSSVLTITPQPQDHGTNLTCQVTLPGTNVSTRMTTRLNVSYAPKNLTVTIYQGADSVSTILKNGSSLPISEGQSLRLICSTDSYPPANLSWSWDNLTLCPSKLSKPGLLELFPVHLKHGGVYTCQAQHALGSQHISLSLSPQSSATLSEMMMGTFVGSGVTALLFLSVCILLLAVRSYRRKPARPAVVAPHPDALKVSVSQNPLVESQADDSSEPLPSILEAAPSSTEEEIHYATLSFHEMKPMNLWGQQDTTTEYSEIKFPQRTAWP
# Tests used:
# Experiment in all cases: glycan array binding signal (z-score within array); higher = stronger binding
# Conditions in all cases: glycan notation: IUPAC condensed, linker removed
# [1] = target: GlcNAc(a1-3)Gal(b1-4)GlcNAc
# Outline: (§1)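 Glycan array data were curated from 3228 arrays in the Consortium for Functional Glycomics database and kept only where the protein sequence was available. Glycan names were converted to IUPAC-condensed notation, and columns mapping to the same glycan were averaged. The binding signal is a within-array Z-score, averaged across arrays of the same protein sequence at different concentrations or buffers and across linkers. Negative Z-scores can be read as non-binding.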
# [2] = target: GlcNAc(a1-4)Gal(b1-3)GlcNAc
# Outline: as §1
# [3] = target: GlcNAc(a1-4)Gal(b1-4)GalNAc
# Outline: as §1
# [4] = target: GlcNAc(a1-4)Gal(b1-4)GlcNAc
# Outline: as §1
# [5] = target: GlcNAc(a1-4)Gal(b1-4)GlcNAc(b1-3)Gal(b1-4)Glc
# Outline: as §1
# [6] = target: GlcNAc(a1-4)Gal(b1-4)GlcNAc(b1-3)Gal(b1-4)GlcNAc
# Outline: as §1
# [7] = target: GlcNAc(a1-4)Gal(b1-4)GlcNAc(b1-3)Gal(b1-4)GlcNAc(b1-3)Gal(b1-4)GlcNAc
# Outline: as §1
# [8] = target: GlcNAc(a1-4)Gal(b1-4)GlcNAc(b1-3)Gal(b1-4)[Fuc(a1-3)]GlcNAc(b1-3)Gal(b1-4)[Fuc(a1-3)]GlcNAc
# Outline: as §1
# [9] = target: GlcNAc(a1-6)Gal(b1-4)GlcNAc
# Outline: as §1
# [10] = target: GlcNAc(b1-2)Gal(b1-3)GalNAc
# Outline: as §1
# [11] = target: GlcNAc(b1-2)Man(a1-3)[GlcNAc(b1-2)Man(a1-6)]Man(b1-4)GlcNAc(b1-4)GlcNAc
# Outline: as §1
# [12] = target: GlcNAc(b1-2)Man(a1-3)[GlcNAc(b1-2)Man(a1-6)]Man(b1-4)GlcNAc(b1-4)[Fuc(a1-6)]GlcNAc
# Outline: as §1
# [13] = target: GlcNAc(b1-2)Man(a1-3)[GlcNAc(b1-4)][GlcNAc(b1-2)Man(a1-6)]Man(b1-4)GlcNAc(b1-4)GlcNAc
# Outline: as §1
# [14] = target: GlcNAc(b1-2)Man(a1-3)[GlcNAc(b1-4)][GlcNAc(b1-2)Man(a1-6)]Man(b1-4)GlcNAc(b1-4)[Fuc(a1-6)]GlcNAc
# Outline: as §1
# [15] = target: GlcNAc(b1-2)[GlcNAc(b1-4)]Man(a1-3)[GlcNAc(b1-2)Man(a1-6)]Man(b1-4)GlcNAc(b1-4)GlcNAc
# Outline: as §1
# [16] = target: GlcNAc(b1-2)[GlcNAc(b1-4)]Man(a1-3)[GlcNAc(b1-4)][GlcNAc(b1-2)Man(a1-6)]Man(b1-4)GlcNAc(b1-4)GlcNAc
# Outline: as §1
# [17] = target: GlcNAc(b1-2)[GlcNAc(b1-4)]Man(a1-3)[GlcNAc(b1-4)][GlcNAc(b1-2)[GlcNAc(b1-6)]Man(a1-6)]Man(b1-4)GlcNAc(b1-4)GlcNAc
# Outline: as §1
# [18] = target: GlcNAc(b1-2)[GlcNAc(b1-4)]Man(a1-3)[GlcNAc(b1-4)][GlcNAc(b1-2)[GlcNAc(b1-6)]Man(a1-6)]Man(b1-4)GlcNAc(b1-4)[Fuc(a1-6)]GlcNAc
# Outline: as §1
# [19] = target: GlcNAc(b1-2)[GlcNAc(b1-6)]Man(a1-6)[GlcNAc(b1-2)Man(a1-3)]Man(b1-4)GlcNAc(b1-4)GlcNAc
# Outline: as §1
# [20] = target: GlcNAc(b1-2)[GlcNAc(b1-6)]Man(a1-6)[GlcNAc(b1-2)Man(a1-3)]Man(b1-4)GlcNAc(b1-4)[Fuc(a1-6)]GlcNAc
# Outline: as §1
# [21] = target: GlcNAc(b1-2)[GlcNAc(b1-6)]Man(a1-6)[GlcNAc(b1-4)][GlcNAc(b1-2)Man(a1-3)]Man(b1-4)GlcNAc(b1-4)GlcNAc
# Outline: as §1
# GlcNAc(b1-3)Fuc = target: GlcNAc(b1-3)Fuc
# Outline: as §1
# GlcNAc(b1-3)Gal = target: GlcNAc(b1-3)Gal
# Outline: as §1
# [22] = target: GlcNAc(b1-3)Gal(b1-3)GalNAc
# Outline: as §1
# GlcNAc(b1-3)Gal(b1-4)Glc = target: GlcNAc(b1-3)Gal(b1-4)Glc
# Outline: as §1
# [23] = target: GlcNAc(b1-3)Gal(b1-4)GlcNAc
# Outline: as §1
# [24] = target: GlcNAc(b1-3)Gal(b1-4)GlcNAc(b1-2)Man(a1-3)[GlcNAc(b1-3)Gal(b1-4)GlcNAc(b1-2)Man(a1-6)]Man(b1-4)GlcNAc(b1-4)GlcNAc
# Outline: as §1
# [25] = target: GlcNAc(b1-3)Gal(b1-4)GlcNAc(b1-2)Man(a1-3)[GlcNAc(b1-3)Gal(b1-4)GlcNAc(b1-2)Man(a1-6)]Man(b1-4)GlcNAc(b1-4)[Fuc(a1-6)]GlcNAc
# Outline: as §1
# [26] = target: GlcNAc(b1-3)Gal(b1-4)GlcNAc(b1-2)[GlcNAc(b1-3)Gal(b1-4)GlcNAc(b1-6)]Man(a1-6)[GlcNAc(b1-3)Gal(b1-4)GlcNAc(b1-2)Man(a1-3)]Man(b1-4)GlcNAc(b1-4)GlcNAc
# Outline: as §1
# [27] = target: GlcNAc(b1-3)Gal(b1-4)GlcNAc(b1-3)Gal(b1-4)GlcNAc
# Outline: as §1
# [28] = target: GlcNAc(b1-3)Gal(b1-4)GlcNAc(b1-3)Gal(b1-4)GlcNAc(b1-2)Man(a1-3)[GlcNAc(b1-3)Gal(b1-4)GlcNAc(b1-3)Gal(b1-4)GlcNAc(b1-2)Man(a1-6)]Man(b1-4)GlcNAc(b1-4)GlcNAc
# Outline: as §1
# [29] = target: GlcNAc(b1-3)Gal(b1-4)GlcNAc(b1-3)Gal(b1-4)GlcNAc(b1-2)Man(a1-3)[GlcNAc(b1-3)Gal(b1-4)GlcNAc(b1-3)Gal(b1-4)GlcNAc(b1-2)Man(a1-6)]Man(b1-4)GlcNAc(b1-4)[Fuc(a1-6)]GlcNAc
# Outline: as §1
# [30] = target: GlcNAc(b1-3)Gal(b1-4)GlcNAc(b1-3)Gal(b1-4)GlcNAc(b1-2)[GlcNAc(b1-3)Gal(b1-4)GlcNAc(b1-3)Gal(b1-4)GlcNAc(b1-6)]Man(a1-6)[GlcNAc(b1-3)Gal(b1-4)GlcNAc(b1-3)Gal(b1-4)GlcNAc(b1-2)Man(a1-3)]Man(b1-4)GlcNAc(b1-4)[Fuc(a1-6)]GlcNAc
# Outline: as §1
# [31] = target: GlcNAc(b1-3)Gal(b1-4)GlcNAc(b1-3)Gal(b1-4)GlcNAc(b1-3)Gal(b1-4)GlcNAc(b1-2)Man(a1-3)[GlcNAc(b1-3)Gal(b1-4)GlcNAc(b1-3)Gal(b1-4)GlcNAc(b1-3)Gal(b1-4)GlcNAc(b1-2)Man(a1-6)]Man(b1-4)GlcNAc(b1-4)GlcNAc
# Outline: as §1
# [32] = target: GlcNAc(b1-3)Gal(b1-4)GlcNAc(b1-3)Gal(b1-4)GlcNAc(b1-3)Gal(b1-4)GlcNAc(b1-2)Man(a1-3)[GlcNAc(b1-3)Gal(b1-4)GlcNAc(b1-3)Gal(b1-4)GlcNAc(b1-3)Gal(b1-4)GlcNAc(b1-2)Man(a1-6)]Man(b1-4)GlcNAc(b1-4)[Fuc(a1-6)]GlcNAc
# Outline: as §1
# [33] = target: GlcNAc(b1-3)Gal(b1-4)GlcNAc(b1-3)Gal(b1-4)GlcNAc(b1-3)Gal(b1-4)GlcNAc(b1-2)[GlcNAc(b1-3)Gal(b1-4)GlcNAc(b1-3)Gal(b1-4)GlcNAc(b1-3)Gal(b1-4)GlcNAc(b1-6)]Man(a1-6)[GlcNAc(b1-3)Gal(b1-4)GlcNAc(b1-3)Gal(b1-4)GlcNAc(b1-3)Gal(b1-4)GlcNAc(b1-2)Man(a1-3)]Man(b1-4)GlcNAc(b1-4)[Fuc(a1-6)]GlcNAc
# Outline: as §1
# [34] = target: GlcNAc(b1-3)Gal(b1-4)GlcNAc(b1-3)Gal(b1-4)GlcNAc(b1-3)Gal(b1-4)GlcNAc(b1-3)Gal(b1-4)GlcNAc(b1-2)Man(a1-3)[GlcNAc(b1-3)Gal(b1-4)GlcNAc(b1-3)Gal(b1-4)GlcNAc(b1-3)Gal(b1-4)GlcNAc(b1-3)Gal(b1-4)GlcNAc(b1-2)Man(a1-6)]Man(b1-4)GlcNAc(b1-4)GlcNAc
# Outline: as §1
# [35] = target: GlcNAc(b1-3)Gal(b1-4)GlcNAc(b1-3)Gal(b1-4)GlcNAc(b1-3)Gal(b1-4)GlcNAc(b1-3)Gal(b1-4)GlcNAc(b1-2)Man(a1-3)[GlcNAc(b1-3)Gal(b1-4)GlcNAc(b1-3)Gal(b1-4)GlcNAc(b1-3)Gal(b1-4)GlcNAc(b1-3)Gal(b1-4)GlcNAc(b1-2)Man(a1-6)]Man(b1-4)GlcNAc(b1-4)[Fuc(a1-6)]GlcNAc
# Outline: as §1
binder,measurement,setting,value
B1,glycan array binding signal (z-score),[1],-0.313
same,glycan array binding signal (z-score),[2],-0.587
same,glycan array binding signal (z-score),[3],-0.452
same,glycan array binding signal (z-score),[4],-0.41
same,glycan array binding signal (z-score),[5],-0.365
same,glycan array binding signal (z-score),[6],-0.588
same,glycan array binding signal (z-score),[7],-0.453
same,glycan array binding signal (z-score),[8],0.187
same,glycan array binding signal (z-score),[9],-0.267
same,glycan array binding signal (z-score),[10],-0.364
same,glycan array binding signal (z-score),[11],-0.12
same,glycan array binding signal (z-score),[12],-0.183
same,glycan array binding signal (z-score),[13],-0.191
same,glycan array binding signal (z-score),[14],-0.566
same,glycan array binding signal (z-score),[15],-0.448
same,glycan array binding signal (z-score),[16],1.87
same,glycan array binding signal (z-score),[17],-0.343
same,glycan array binding signal (z-score),[18],-0.517
same,glycan array binding signal (z-score),[19],-0.332
same,glycan array binding signal (z-score),[20],-0.408
same,glycan array binding signal (z-score),[21],-0.232
same,glycan array binding signal (z-score),GlcNAc(b1-3)Fuc,-0.256
same,glycan array binding signal (z-score),GlcNAc(b1-3)Gal,-0.394
same,glycan array binding signal (z-score),[22],0.076
same,glycan array binding signal (z-score),GlcNAc(b1-3)Gal(b1-4)Glc,-0.344
same,glycan array binding signal (z-score),[23],-0.519
same,glycan array binding signal (z-score),[24],-0.123
same,glycan array binding signal (z-score),[25],0.261
same,glycan array binding signal (z-score),[26],-0.704
same,glycan array binding signal (z-score),[27],-0.57
same,glycan array binding signal (z-score),[28],-0.159
same,glycan array binding signal (z-score),[29],-0.39
same,glycan array binding signal (z-score),[30],-0.336
same,glycan array binding signal (z-score),[31],-0.507
same,glycan array binding signal (z-score),[32],-0.419
same,glycan array binding signal (z-score),[33],-0.339
same,glycan array binding signal (z-score),[34],-0.508
same,glycan array binding signal (z-score),[35],-0.321
